These are yes or no findings as the source states them, for the method shown. For part of these data: Binding seen in cells or lysates may run through a third protein. Some entries that bind do so weakly or less than the wild type. For part of these data: Where a sequence is shown, tags or fusion partners need not be part of it.
Key:
[1] = target: T1, Stimulator of interferon genes (STING) (endogenous, mouse dendritic cells) (mouse (endogenous in D2SC and BMDCs)) (UniProt Q3TBT3); experiment: co-IP; endogenous proteins; whole-cell lysates of BMDCs from WT mice stimulated with HSV-60 (2.5 μg/ml) for 8 h, then MG132 for 3 h; precipitated with anti-STING or control IgG, blot for TRIM29
T1 sequence: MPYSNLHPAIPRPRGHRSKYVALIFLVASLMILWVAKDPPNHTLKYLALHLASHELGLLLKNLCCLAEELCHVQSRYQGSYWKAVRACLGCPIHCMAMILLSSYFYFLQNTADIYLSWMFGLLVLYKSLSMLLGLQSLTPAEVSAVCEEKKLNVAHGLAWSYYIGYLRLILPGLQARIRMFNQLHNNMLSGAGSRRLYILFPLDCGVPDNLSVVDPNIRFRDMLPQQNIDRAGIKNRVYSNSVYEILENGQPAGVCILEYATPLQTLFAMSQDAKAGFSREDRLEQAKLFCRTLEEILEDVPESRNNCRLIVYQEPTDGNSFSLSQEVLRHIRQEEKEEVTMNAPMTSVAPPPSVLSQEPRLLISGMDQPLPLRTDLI

Amino acid sequences for entries named in this document (tags omitted). A change or cut given only in a name is not applied to a line headed by its entry. Chains listed by the source or under a name are the forms on record and can include a tag or linker. Residues count along the entry.
UniProt Q86WV6: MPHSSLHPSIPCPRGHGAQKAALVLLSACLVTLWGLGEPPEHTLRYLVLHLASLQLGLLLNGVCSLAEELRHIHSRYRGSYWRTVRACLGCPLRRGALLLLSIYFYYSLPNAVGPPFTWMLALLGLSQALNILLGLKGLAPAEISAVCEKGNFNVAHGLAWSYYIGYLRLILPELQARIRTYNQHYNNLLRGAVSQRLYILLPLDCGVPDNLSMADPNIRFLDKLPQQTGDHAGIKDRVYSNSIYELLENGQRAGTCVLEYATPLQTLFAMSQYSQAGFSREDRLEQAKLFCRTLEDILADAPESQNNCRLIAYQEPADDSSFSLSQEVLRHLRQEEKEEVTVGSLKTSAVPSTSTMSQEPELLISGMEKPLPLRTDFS
Myc-tagged STING truncation mutant 1–160: residues 1-160 of Q86WV6
Myc-tagged STING truncation mutant 1–110: residues 1-110 of Q86WV6
Myc-tagged STING truncation mutant aa211–379: residues 211-379 of Q86WV6

[2] = target: T1, Stimulator of interferon genes (STING) (endogenous, mouse dendritic cells) (mouse (endogenous in D2SC and BMDCs)); experiment: co-IP; endogenous proteins; whole-cell lysates of BMDCs from WT mice without HSV-60 stimulation, then MG132 for 3 h; precipitated with anti-STING, blot for TRIM29
[3] = target: Myc-tagged STING truncation mutant 1–160 (UniProt Q86WV6); experiment: pull-down; in vitro: purified HA-tagged TRIM29 (or truncations) incubated for 2 h with purified Myc-tagged STING (or truncations), anti-Myc beads for 2 h, blot with anti-HA; both purified
[4] = target: Myc-tagged STING truncation mutant aa211–379 (UniProt Q86WV6); experiment: as above
[5] = target: Myc-tagged STING truncation mutant 1–110 (UniProt Q86WV6); experiment: as above
[6] = target: Myc-tagged recombinant full-length STING (UniProt Q86WV6); experiment: as above

B1: TRIM29 (endogenous, mouse dendritic cells) (protein, UniProt Q8R2Q0 1-587)
chain: MEGADACRSNGASPEARDTRSPPGPSGSLENGTKADSKDTKTTNGHSGEVTEGKTLGSALKSGEGKSGLFSSNEWRRPIIQFVESVDDKGSSYFSMDSAEGRRSPYAGLQLGASKKPPVTFAEKGELRKSIFSEPRKPTVTIVEPGEVRRNSYPRADSSLLARAKSGSEEVLCDSCIGNKQKAVKSCLVCQASFCELHLKPHLEGAAFRDHQLLEPIRDFEARKCPLHGKTMELFCQTDQTCICYLCMFQEHKNHSTVTVEEAKAEKETELSLQKEQLQLKIIEIEDDVEKWQKEKDRIKSFTTNEKAILEQNFRDLVRELEKQKEEVRAALEQREQDAVDQVKVIVDALDERAKVLHEDKQTREQLHNISDSVLFLQEFGALMSNYSLPPPLPTYHVLLEGEGLGQSLGNCKDDLLNVCMRHVEKMCKADLSRNFIERNHMENGGDHRYMNSYTSSYGNEWSTPDTMKRYSMYLTPKGGGRTSYQPSSPSRLSKETNQKNFNNLYGTKGNYTSRVWEYTSTVQNSEDMPTVQGNSSFSLKGFPSLLRSQVPKAQPQTWKSGKQTLLSHYRPFYVNKGSGIGSNEAP
- binding [1]: binds
- binding [2]: no binding (condition: without dsDNA stimulation)

B2: HA-tagged recombinant full-length TRIM29 (protein, UniProt Q14134 1-588)
chain: MEAADASRSNGSSPEARDARSPSGPSGSLENGTKADGKDAKTTNGHGGEAAEGKSLGSALKPGEGRSALFAGNEWRRPIIQFVESGDDKNSNYFSMDSMEGKRSPYAGLQLGAAKKPPVTFAEKGELRKSIFSESRKPTVSIMEPGETRRNSYPRADTGLFSRSKSGSEEVLCDSCIGNKQKAVKSCLVCQASFCELHLKPHLEGAAFRDHQLLEPIRDFEARKCPVHGKTMELFCQTDQTCICYLCMFQEHKNHSTVTVEEAKAEKETELSLQKEQLQLKIIEIEDEAEKWQKEKDRIKSFTTNEKAILEQNFRDLVRDLEKQKEEVRAALEQREQDAVDQVKVIMDALDERAKVLHEDKQTREQLHSISDSVLFLQEFGALMSNYSLPPPLPTYHVLLEGEGLGQSLGNFKDDLLNVCMRHVEKMCKADLSRNFIERNHMENGGDHRYVNNYTNSFGGEWSAPDTMKRYSMYLTPKGGVRTSYQPSSPGRFTKETTQKNFNNLYGTKGNYTSRVWEYSSSIQNSDNDLPVVQGSSSFSLKGYPSLMRSQSPKAQPQTWKSGKQTMLSHYRPFYVNKGNGIGSNEAP
- binding [3]: no binding
- binding [4]: no binding
- binding [5]: no binding
- binding [6]: binds
